According to the supplement of paper PMC3334620:
Whole data set: some 33,000 sequences, median “E-score (-0.5 to 0.5)” near -0.012, cut for the highest 2% near 0.27. Some of the results follow.

Molecular target: T1, Vhr1 (UniProt P40522)
T1 sequence: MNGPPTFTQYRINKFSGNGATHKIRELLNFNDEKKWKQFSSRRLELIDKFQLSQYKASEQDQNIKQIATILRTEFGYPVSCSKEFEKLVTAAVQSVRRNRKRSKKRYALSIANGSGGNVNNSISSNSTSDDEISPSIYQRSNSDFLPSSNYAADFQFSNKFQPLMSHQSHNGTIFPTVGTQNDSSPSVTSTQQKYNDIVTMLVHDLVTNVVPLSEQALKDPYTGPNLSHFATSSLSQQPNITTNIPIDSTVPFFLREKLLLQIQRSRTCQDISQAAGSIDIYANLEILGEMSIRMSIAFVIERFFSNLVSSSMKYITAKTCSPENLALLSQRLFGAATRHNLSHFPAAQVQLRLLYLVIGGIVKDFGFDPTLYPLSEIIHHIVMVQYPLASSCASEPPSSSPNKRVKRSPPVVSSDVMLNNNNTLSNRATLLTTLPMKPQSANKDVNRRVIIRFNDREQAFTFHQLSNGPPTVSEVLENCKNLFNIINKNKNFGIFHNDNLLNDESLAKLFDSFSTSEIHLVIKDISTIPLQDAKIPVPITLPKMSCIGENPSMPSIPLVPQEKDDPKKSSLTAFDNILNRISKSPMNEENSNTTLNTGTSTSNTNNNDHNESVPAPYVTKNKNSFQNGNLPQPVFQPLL
Assay: PBM E-score (8-mer binding enrichment) (E-score (-0.5 to 0.5)); higher = stronger / more preferred TF binding; most listed sequences are background and not binding sites
Details: protein concentration: 200 nM; construct: GST-full length
Outline: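 Detection of bound protein used fluorescent anti-GST, with scans normalised by masliner. The proteins were GST-tagged yeast transcription factors applied at about 100-200 nM to universal all-10-mer Agilent arrays made double-stranded by primer extension. Each ungapped eight-base word, pooled with its reverse complement, was scored with an E-score from the Universal PBM Analysis Suite.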

Sequence	PBM E-score
CTCCTTTA	-0.33
ATGCTATA	-0.00334
AAGAAATA	-0.178
ATCACAAC	0.00509
TCTGCAAA	-0.109
AGAGCCTA	-0.236
AGCGCCGA	-0.123
GTACATAC	0.119
GAAAAAGC	-0.276
ACGAAAAG	-0.0432
CAACTGAC	-0.00114
GCTCCACA	-0.104
CGGTGAAA	-0.182
AAGAAGAT	-0.0562
GGGGCACC	-0.0787
ATACAATG	0.154
AATGGGAA	-0.315
AACATGGC	-0.0468
ATGAGTAA	0.256
AGAAAGTG	-0.0964
ATTGCATC	0.0318
CTTTTCCC	-0.231
AAAGTAAA	-0.173
ATTTGCTG	0.075
TCGCCAAA	-0.149

Sequence	PBM E-score
CCTCATTA	-0.111
AATATCAC	0.0106
AAGTCAAC	-0.00442
CAGCGACC	0.029
AGTTCTCG	-0.096
AAAGGCAT	-0.177
AGCTGAGC	-0.144
CTGCGATC	0.12
GGAGGCGA	-0.0657
AATCCTTG	0.0138
GAGCCCCC	-0.194
CCTTGCTA	0.0829
CAAGCGGA	0.0103
ACGGCTCT	-0.185
CAATAAGA	-0.0206
ATCCCCGA	-0.0525
ATACTTCA	-0.166
ATCTTAAA	-0.0666
CGTCTGAC	0.00249
CTAGTGAG	0.0749
CTTAACTA	-0.118
ATCTTAAG	-0.155
ATCAGAAA	-0.08
AACGCCCC	-0.114
ATTCTCAG	-0.0748

Sequence	PBM E-score
AATAGGGC	-0.124
ACTTTCAT	-0.25
CAGGTGGA	-0.149
TGTAACAA	0.0422
AGAAACCA	0.224
GGGGAAAA	-0.247
ATCCTAGC	0.104
GTTCTACA	-0.0498
CGGCTGCA	-0.0624
CAGAACGA	0.0335
CATAGGAC	-0.0393
AGATCGCC	0.067
GCTACGTA	-0.0244
ACTTGCAT	0.182
ATTGCAGC	0.0423
ACAGCGGG	-0.00937
CCCATACA	0.119
ACCTAAAC	0.0506
ATGCCTGG	-0.0184
ACCCGTGC	-0.0423
CCTGCAGG	-0.021
CAAGATTG	-0.0519
CATAGTCA	0.37
AGAAGAGG	-0.188
ATAACTAC	0.044

Sequence	PBM E-score
CACCCCTC	0.104
CGAGTCTC	0.0296
CGACCTAA	0.0404
GTTTATAA	-0.168
CTTTATTC	-0.0969
CCCTGGCC	-0.0793
GCCACCGC	0.0472
ATCGGTTA	0.206
GAAGAAAA	-0.221
GCACTCCC	-0.0028
ATCGAGAT	-0.0629
CGCCTTGA	-0.0352
TCGGTCAA	-0.0603
CGTCGCTA	-0.0463
AAAGACCG	-0.139
GAAACTGA	-0.118
CCGACCTA	0.14
AATTTAGC	-0.143
ACGCGACG	0.064
CACTACAA	0.194
AAAGTTCT	-0.274
ACGGCGAT	0.085
ACATAAGT	0.113
GATTAAGC	0.0661
AAACTTCA	-0.239

Sequence	PBM E-score
CTCCCCGA	-0.116
CAAATCTG	0.0928
CACTATGG	-0.039
CTTTACGC	-0.0788
CAATCCAG	-0.0547
CAAAGCGG	-0.197
AGCGTCAT	0.0249
AGAGTGTG	0.14
ACAGTTAG	-0.0254
ACACATAG	0.102
GACTCGTA	0.327
GAGCCTAA	-0.212
GAAGGCGC	-0.173
ATAATTCA	0.0282
CGTTAACG	-0.102
CAAGAACC	-0.00828
TGCCGTAA	-0.243
TCTGACAA	-0.0506
CCGTTCCA	-0.0911
CGCAACTA	0.0783
AGCTATTA	0.0902
GAGAGAAC	0.0206
ACTGGAAT	0.12
CGCAGGGC	0.0378
AATGTTAG	-0.144

Sequence	PBM E-score
CACAAGCG	0.0849
GCTCCTGA	0.00917
CGGTTGCC	-0.0155
CGGAATAG	0.069
TATCTTCA	-0.0949
CAGTGTAC	0.141
TAACAATA	0.0499
AATCAATG	0.0855
GGTGCTAA	-0.166
GTGTGAGA	0.0943
AATCTACG	0.0537
CACAACTA	0.159
ATGGTTGA	0.208
ACGGCCAC	-0.0418
CGCGTGGC	-0.199
AATTCAGG	-0.0295
CTCACAAA	0.075
TAAGGATA	0.0424
ATTATTCA	0.163
CCTTTATC	-0.252
CTCCCAGC	-0.0318
AGACTACG	-0.00303
GAGGCTCA	-0.143
GCATACAC	0.0355
AAATATAG	0.103

Sequence	PBM E-score
CATTTTGA	-0.0193
CGACCCCG	0.134
CGCTTAAA	-0.0453
CGTAACGA	-0.169
CGTTCGCA	0.0323
CCGGGTAG	0.00591
ACTGCGGC	0.0931
CGCACCCC	-0.00442
TTAGCCAA	-0.0266
TAACAGAA	-0.069
TAAGTGTA	-0.144
GCTGGGAA	0.0455
ATCTCTCA	0.155
AAGCGATG	-0.0712
GGAGATTA	0.0348
GAAAACAA	-0.041
TGGGCCAA	-0.255
CAGGTGGG	-0.0876
CAAGATAC	-0.00685
ATAAGCAT	-0.279
ATGTATAA	0.111
ATGGAAGA	0.0176
AATCCCAC	-0.0307
GCTCCAGA	-0.128
CCCCAGCC	-0.0671

Sequence	PBM E-score
CGTCGCCC	-0.0332
ATGTGGGC	0.0309
CATTACGC	-0.0785
ACGGACGG	-0.00784
CGATAGGA	0.129
CACAGCTA	0.0884
AGCGACAC	0.122
AACTGTCG	-0.146
AATCCTCC	-0.0502
ACGGCTGA	0.11
CCTTCTTC	-0.233
CGGTGATC	0.04
TGAACGCA	0.035
AATCTTCG	-0.0308
AGCCGACA	0.0595
CTATCTCC	-0.208
TAAAAGCA	-0.146
AGAATAAT	0.0882
TCTTGGAA	-0.0639
AGGCCACC	-0.0743
AGGCTCAC	-0.0235
CTTCGGAA	0.0346
GACCCCCC	-0.314
ATACTTCG	0.00739
AGCATTTC	-0.185

Sequence	PBM E-score
CACTTAAA	-0.145
CCTCTACA	-0.195
AAAGTTGA	-0.3
ATGTTTGG	0.0148
CCAACAAC	0.101
AAGCGCCG	-0.234
GATCTTGA	0.156
GGACGAAA	-0.114
GCCATGCC	0.00234
GCATTGGA	-0.166
GAAGGGTA	0.0935
ATACTAAT	0.238
GTGGGTTA	0.149
CATAATAC	-0.0362
CAGATATG	0.0938
ATTCTAGC	-0.0864
TCAAAGAA	-0.349
ACAAGCGG	-0.0447
AATAGACC	-0.0852
GATGTCAC	0.157
ACCGTAAT	-0.133
ATGAGAAC	-0.00399
ATCATGAC	0.335
ACTATCAA	0.112
CCAGCCGA	0.0506

Sequence	PBM E-score
CGGAACTC	0.0444
CCCTTGAC	-0.152
CAACTATG	0.0994
CAGGACTA	-0.0228
CGATTTCA	0.0412
CTCGTTTA	-0.0274
CGTTTCCA	-0.0207
AAGATCTT	-0.242
CTTTTTAA	-0.256
CGGCGTCA	-0.108
CTCTGCAG	-0.0116
AGGCCTTA	-0.211
TATTATCA	0.0625
CAATGACG	-0.0381
ATGTAAGC	-0.0258
CCTAAAGA	-0.24
GTAATCGA	-0.00778
AGTGGCTA	0.0701
ACGAACAC	0.0844
TGGAAACA	0.0346
GAGATTCA	0.0192
AAATCCTG	0.0104
CACCGTAC	0.105
CATGCTTA	0.145
TCTAATCA	0.23

Sequence	PBM E-score
GGATTTTA	-0.214
CTACGTAG	-0.0255
AAGCGTCT	-0.251
ACGGTGAG	0.234
CATCCTGA	0.242
CCATGGTA	0.225
GAGATCGC	-0.0882
ACACGTTG	-0.0652
AGAAACGA	0.00093
ATGCCCCG	-0.00357
ACATCCCC	0.226
CCCCCAAA	-0.302
TACCGCAA	0.105
CCTCTGAG	0.147
CTCCGTAA	-0.19
CGCGACAG	-0.0867
CGCACAGA	-0.215
CCCATCTC	-0.00162
AAGCGGAG	-0.0344
GTAGGAGA	-0.148
AAAGACAG	-0.00384
CCCAGTAG	0.0709
GGCATAAA	-0.105
ACAGTGAA	0.0157
GACCTGAC	0.161

Sequence	PBM E-score
AGAGGGCG	-0.0697
GAGGCCCA	-0.161
AGCCCCTA	-0.104
AATGTACC	-0.0492
TGAACTAA	-0.134
CTCGAGAG	-0.0272
GGATAACC	-0.112
AAGTTATC	-0.0682
CCTACTCA	0.0944
CGTTTCCC	0.0407
ACTCCGAG	0.357
GCATCTAC	0.0888
CTGCTCTC	-0.138
GACGACCC	0.0907
CGCCGTAC	0.0322
ACAAAACC	0.097
GACAGATC	-0.0659
AACTCCCT	-0.175
CATTTATC	-0.0956
ACCTCGGG	-0.0373
GAGGGTAA	-0.0586
ACTCAATG	0.159
ACGATTCT	0.0967
GTTTTATA	-0.0144
ACGTGTCA	0.0924

Sequence	PBM E-score
GCGGTGAC	0.103
TAAGGCCA	-0.213
CTACGCGC	0.0705
GCGATTGA	-0.121
ACAGTTCT	0.0293
CGAGCAAG	-0.0458
TCTGCGAA	-0.226
GCGGGGCA	-0.0284
CAGCTTTC	-0.0274
AACAGAAG	-0.178
ACTCAGTA	0.281
GACTCAGC	0.404
CCACAAGC	-0.0942
CAACGCCG	0.00171
CCGTGTAA	-0.067
CTACTCAA	0.113
AAGGCACC	-0.0491
ATATAGGA	0.124
GGTCGCAA	0.0154
ATCACTTG	-0.0397
GCGGGGGA	-0.0987
CCATCACC	0.177
ATGTGATC	0.132
CGTATAAA	0.0599
GCCTATCA	-0.112

Sequence	PBM E-score
ACTGTAGA	0.0811
CGGGGTAC	-0.239
CAGGTCGC	-0.143
TCAAATAA	-0.155
ATTTCTCA	-0.233
ATGGGTTC	0.146
AGGGTATA	0.158
GACCCAAC	0.0715
CCAAGGCA	-0.0106
ACCGTGTC	0.0801
ACACTTCC	-0.224
AATGTCGC	-0.00104
GGGTCGAC	0.114
CTCCGGCA	0.152
CAGCGTAC	-0.0274
CTCCTTTC	0.0578
AAGCTTTA	-0.237
CCAAATAA	-0.0109
GTATCTTA	0.146
